From PMC4336329 (PLoS ONE, 2015)
Among all 310,000 compounds or so, about 2,200 (0.71%) showed an effect of 50% or more. The effect is printed as a negative number. The list shows a part of the results.

These compounds were tested against human ether-à-go-go-related gene (hERG) potassium channel (human, UniProt Q12809) (assay: primary screen, population patch clamp on CHO cells stably expressing hERG).
human ether-à-go-go-related gene (hERG) potassium channel, sequence (Q12809 whole entry, looked up): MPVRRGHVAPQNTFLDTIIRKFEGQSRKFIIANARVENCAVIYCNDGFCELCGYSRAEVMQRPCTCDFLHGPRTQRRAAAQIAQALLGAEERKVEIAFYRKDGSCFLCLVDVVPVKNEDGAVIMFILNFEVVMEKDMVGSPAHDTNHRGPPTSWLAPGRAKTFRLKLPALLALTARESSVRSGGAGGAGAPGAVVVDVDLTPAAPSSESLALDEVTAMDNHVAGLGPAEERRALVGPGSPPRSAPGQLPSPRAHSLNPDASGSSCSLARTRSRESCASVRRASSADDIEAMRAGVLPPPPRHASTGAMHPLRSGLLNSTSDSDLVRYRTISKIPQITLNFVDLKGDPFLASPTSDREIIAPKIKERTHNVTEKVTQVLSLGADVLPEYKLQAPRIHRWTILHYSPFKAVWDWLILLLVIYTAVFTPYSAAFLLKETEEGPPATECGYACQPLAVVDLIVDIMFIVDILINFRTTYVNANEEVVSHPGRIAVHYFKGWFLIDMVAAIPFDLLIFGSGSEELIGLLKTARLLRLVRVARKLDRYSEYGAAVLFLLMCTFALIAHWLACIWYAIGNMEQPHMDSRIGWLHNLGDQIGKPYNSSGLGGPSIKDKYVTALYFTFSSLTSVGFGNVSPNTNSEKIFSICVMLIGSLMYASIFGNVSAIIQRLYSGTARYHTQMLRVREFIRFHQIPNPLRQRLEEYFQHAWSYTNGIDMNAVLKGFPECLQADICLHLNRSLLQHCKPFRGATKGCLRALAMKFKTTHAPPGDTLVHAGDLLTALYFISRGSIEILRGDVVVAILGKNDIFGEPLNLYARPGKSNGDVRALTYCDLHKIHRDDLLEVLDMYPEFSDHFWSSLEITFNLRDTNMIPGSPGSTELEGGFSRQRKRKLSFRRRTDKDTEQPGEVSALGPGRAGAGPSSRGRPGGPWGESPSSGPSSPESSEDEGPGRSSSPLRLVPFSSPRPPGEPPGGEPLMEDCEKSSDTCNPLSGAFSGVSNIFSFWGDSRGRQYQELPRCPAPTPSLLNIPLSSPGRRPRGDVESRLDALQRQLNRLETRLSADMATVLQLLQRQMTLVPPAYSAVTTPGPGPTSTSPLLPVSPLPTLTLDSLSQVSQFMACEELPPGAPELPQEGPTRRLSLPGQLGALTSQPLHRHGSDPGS

Row | SMILES | hERG current change (%, negative = inhibition) at 1uM [%]
1 | Cc1ccccc1OCC(=O)Nc1nnc(C2CCCCC2)s1 | 12.7
2 | COc1cccc(NC(=O)c2cc3ccccc3oc2=O)c1 | 15.2
3 | CC(C(=O)Nc1ccc(F)c(F)c1F)N1CCCCCC1 (stereo not shown) | 11.1
4 | CCOc1c(C)cnc2c1c(=O)n(Cc1ccccc1F)c(=O)n2C | 9.06
5 | CCOc1cc(C2C3=C(CC(C)(C)CC3=O)N(CCOC)C3=C2C(=O)CC(C)(C)C3)ccc1O | 10.6
6 | COc1cccc(C(=O)NNc2c3ccccc3nc3ccccc23)c1 | 13.1
7 | Cc1cc(-c2c(C)n([O-])c(C)c(C)[n+]2=O)ccc1F | 6.88
8 | NS(=O)(=O)c1ccc(CCNC(=O)c2ccc(NC3=NC4CS(=O)(=O)CC4S3)cc2)cc1 (stereo not shown) | 8.41
9 | N#Cc1cc(NC2CCCC2)c([N+](=O)[O-])cc1C#N | 11.4
10 | CCn1c(SCC(=O)Nc2ccc(NC(=O)c3cccs3)cc2)nnc1-c1cccnc1 | 5.51
11 | Cc1cc(C(=O)OCC(=O)NCc2ccc(Cl)cc2)c(C)o1 | 8.52
12 | O=C(NNC(=O)c1cc(Br)ccc1O)c1csc(N2CCOCC2)n1 | -1.7
13 | CCNc1nc(NCC)nc(C(=O)NN)n1 | 8.33
14 | COc1ccc(Br)cc1CNC(=O)C1CCC(=O)N1C(C)C (stereo not shown) | 0.907
15 | CCn1c(SCC(=O)N2CCCCC2)nc(O)cc1=O | -0.348
16 | O=C1N=C(N2CCOCC2)SC1=C1CCCCC1 | 2.3
17 | CC1CN(C(=O)c2cc(COc3c(F)cccc3F)on2)CCN1C (stereo not shown) | 15.3
18 | CN(Cc1ccno1)Cc1cn(Cc2ccccc2)nc1-c1ccc2c(c1)OCO2 | 2.29
19 | CCOC(=O)c1ccc(NC(=O)c2nc[nH]c2C(=O)N(CC)CC)cc1 | 6.08
20 | CCOC(=O)c1sc2nc(CC(=O)OC)nc(NCCN(CC)CC)c2c1C | -42.2
21 | C=CCN(CC=C)Cc1c(C)[nH]c2ccc(C(=O)OCC)cc2c1=O | -5.67
22 | CC1(C)CC(=O)c2sc(NC(=O)c3ccco3)nc2C1 | 14.4

Row | SMILES | hERG current change (%, negative = inhibition) at 1uM [%]
23 | CCCc1cc(C(=O)Cc2nc3ccccc3s2)c(O)cc1O | -3.42
24 | CC(C)(C)n1nc2c(c1NC(=O)COc1ccc(Cl)cc1)CS(=O)(=O)C2 | -18
25 | CCOC(=O)c1c(NC(=O)C(C)N2CCN(S(=O)(=O)c3cccs3)CC2)sc2c1CCC(C)C2 (stereo not shown) | 7.27
26 | CCOc1ccc(N2C(=O)NC(=O)/C(=C\c3ccc(N4CCOCC4)cc3C)C2=O)cc1 | 3.16
27 | CC[n+]1c(/C=C2\C=C(C)CC(C)(C)C2)sc2ccccc21.[I-] | -4.87
28 | CC1CCN(C(=O)CN2C(=O)c3ccccc3S2(=O)=O)CC1 | 9.21
29 | CC12CC3CC(C)(C1)CC(N)(C3)C2.Cl | 18
30 | Cc1cc(C)n(CC(O)CN(c2ccccc2)S(=O)(=O)c2ccccc2)n1 (stereo not shown) | 11.4
31 | Cc1csc(NC(=O)CSc2nnc(-c3ccc(S(=O)(=O)N4CCCC4)cc3)o2)n1 | 1.05
32 | CC(=O)Nc1ccc(S(=O)(=O)NCCC(=O)OCc2ccc([N+](=O)[O-])cc2)cc1 | -16.8
33 | CC(=O)Nc1ccc(NC(=S)NC(=O)c2oc3ccccc3c2C)cc1 | 15.3
34 | COc1cccc(NC(=O)CNC(=O)Cn2cnc3sc(C)c(C)c3c2=O)c1 | 17.7
35 | CN1CCN(C(=O)c2ccc3c(=O)n(Cc4ccc(Cl)cc4)c(=S)[nH]c3c2)CC1 | 0.71
36 | CC(C)NC(=O)CCn1nc(-c2ccc(Cl)cc2)c2ccccc2c1=O | 14.5
37 | CCN(C(=O)c1cc([N+](=O)[O-])ccc1NCc1cccnc1)c1ccccc1 | 8.03
38 | Nc1ccc(C(O)(C(F)(F)F)C(F)(F)F)cc1 | 19
39 | CCN1CCN(S(=O)(=O)c2ccc(OC)c(NC(=O)c3ccccc3F)c2)CC1 | 1.48
40 | O=C1CCN(Cc2ccc(O)cc2)CCN1CCO | 7.6
41 | COC(=O)CC(c1ccc(F)cc1)n1c(C)ccc1C (stereo not shown) | 10.3
42 | O=C(Nc1ncccc1O)c1cccc(S(=O)(=O)NCc2ccccc2)c1 | 12.4
43 | COc1ccc(S(=O)(=O)NCc2ccccc2)cc1Br | 14.9
44 | Oc1ccc(Nc2nc3ccccc3nc2Nc2ccc(O)cc2)cc1 | 17.3

Row | SMILES | hERG current change (%, negative = inhibition) at 1uM [%]
45 | O=C(c1cccc(F)c1)N1CCC2(CC1)NCCc1[nH]cnc12 | 16
46 | CCOc1ccccc1NC(=O)CCS(=O)(=O)c1ccc2c(c1)CC(C)N2C(C)=O (stereo not shown) | 13.9
47 | COc1cc(C)nc(N2CCCC(C(=O)Nc3cccc(Cl)c3Cl)C2)n1 (stereo not shown) | 5.35
48 | Cc1ccccc1NC(=O)c1c(C)nc(SCC(=O)OCc2ccccc2)c(C#N)c1-c1ccc(F)cc1 | 3.46
49 | COC(=O)c1ccc(NC(=O)[C@H](C)NC(N)=O)cc1 | 8.56
50 | COc1cn(-c2ccccc2)nc1C(=O)NCc1ccc(C)cc1 | 11.2
51 | COc1ccccc1C(=O)NCCCNC(=O)c1ccccn1 | 22.9
52 | Cc1ccc(-c2nc3ccccc3nc2NN)cc1 | 15.8
53 | COc1ccccc1CN1C[C@@H]2C[C@@H](C3=Cc4cccc(OC)c4OC3)N3CCC[C@@]23C1=O | 14.2
54 | CC(=O)Nc1sc2c(c1C#N)CC(C)(C)NC2(C)C | 17.2
55 | C/C(=N/NC(=O)CNC(=O)Cc1ccccc1)c1ccc(Cl)cc1 | 11
56 | Cc1occc1C(=O)NC(C)CCc1ccccc1 (stereo not shown) | 7.56
57 | CCN(CC(=O)Nc1c(F)cccc1F)C(=O)CC1CCCCC1 | 10.7
58 | Cc1ccc(NC(=O)CCc2nnc3ccc(NCc4ccco4)nn23)nc1 | 12
59 | COc1ccccc1CNC(=O)C1CCN(S(=O)(=O)c2ccc3nc4c(c(C(=O)O)c3c2)CCCC4)CC1 | 16.5
60 | O=C(NCCCc1ccccc1)c1cccc(Br)c1 | -3.58
61 | CC(=O)c1cccc(N(C(=O)CNC(=O)c2ccco2)C(C(=O)NCc2ccco2)c2ccccc2)c1 (stereo not shown) | 7.26
62 | Cc1cc(C(C)(C)C)cc(S(=O)(=O)Nc2ccc(O)c(C(=O)O)c2)c1C | -3.91
63 | COc1ccc(NC(=O)CCC(=O)Nc2nnc(C(C)C)s2)cc1Cl | 15.3
64 | CCN(CC)Cc1c(O)ccc2occ(C(=O)c3ccc(OC)cc3)c12 | -64.2
65 | COc1cccc(NC(=O)COc2cc(C)cc3oc(=O)cc(C)c23)c1 | 13.5
66 | CN(C(=O)c1ccccc1[N+](=O)[O-])c1ccccc1C(=O)NCc1ccccc1 | 12.1

Row | SMILES | hERG current change (%, negative = inhibition) at 1uM [%]
67 | CCN(CC)CCCNC(=O)c1cc(Nc2ccc(OC)cc2OC)nc2ccccc12 | 0.441
68 | O=C(Nc1cccc(NC(=O)c2ccco2)c1)c1ccc([N+](=O)[O-])cc1 | 30.8
69 | Cc1ccc([N+](=O)[O-])cc1NC(=O)C(Sc1ccccc1)c1ccccc1 (stereo not shown) | 14.3
70 | O=C1C2C3c4ccccc4C(c4ccccc43)[C@@H]2c2nc3ccccc3n21 (stereo partly shown) | 12
71 | Cc1nc(SC2CC(=O)N(c3ccccc3)C2=O)nc2c1CCCC2 (stereo not shown) | -6.95
72 | Cn1nccc1C(=O)N/N=C/c1cccnc1 | -1.45
73 | O=c1oc2ccc(Cl)cc2cc1-c1nnc(Nc2cccc(C(F)(F)F)c2)s1 | 13
74 | Clc1ccc(CN2CCC(Cc3ccccc3)CC2)cc1 | 12.3
75 | COc1ccc(OC)c2c1CC(C)(C)NC2=O | 12.5
76 | CN(C)S(=O)(=O)c1cccc(NC(=S)N/N=C/c2cc(Br)ccc2O)c1 | 12.3
77 | C/C(CC(=O)NC(C)c1ccccc1)=N\NC(N)=S (stereo not shown) | 3.85
78 | C/C(=N\N1CCN(Cc2ccccc2Cl)CC1)c1ccc(F)cc1 | 10.9
79 | O=C(Nc1cc(S(=O)(=O)N2CCOCC2)ccc1N1CCOCC1)c1cccc(S(=O)(=O)N2CCCCC2)c1 | 8.85
80 | COCCNC(=O)/C(C#N)=C/c1c(N2CCCCCC2)nc2c(C)cccn2c1=O | 12.6
81 | Cc1ccc(-c2nnc(Oc3cccc(C)c3)c3ccccc23)cc1 | 8.86
82 | COc1ccc(C(C(=O)NC2CCCCC2)N(C(=O)CCl)c2ccccc2Cl)cc1 (stereo not shown) | 5.14
83 | CCOc1ccc(C(=O)Nc2ccc(Cl)cn2)cc1Cl | 6.8
84 | CCCCN1C[C@H](O)[C@@H](O)[C@H](O)[C@H]1CO.Cl | 15.7
85 | Cc1ccc(S(=O)(=O)Nc2ccc(C(=O)N3CCCC3)cc2)cc1 | 2.67
86 | CCc1nc(SCC(=O)NCc2ccco2)c2c(=O)n(C)c(=O)n(C)c2n1 | 8.22
87 | Cc1cc(C)c(C2=CC(=O)C[C@H](c3ccc4c(c3)OCO4)C2)c(C)c1 | 13.8
88 | CCN(CCN(C)C)C(=O)Cn1ncc2c1-c1cc(C)ccc1OC2 | -0.617
